# Measurements taken from PubChem BioAssay AID1457 (National Center for Advancing Translational Sciences (NCATS), 2008).
# Among all 210,000 compounds or so, about 730 (0.35%) were called active. The inconclusive results got no clear call from the source; some entries with a clear call stand among them for comparison. Calls come from the whole dose curve; as a rule, active = well fitted inhibition curve with a large enough effect; inconclusive = small, poorly fitted or top-dose-only effect; inactive = no such curve, though single readings can be large or run the other way. Potencies beside an inconclusive call are fits to weak or partial responses and may not hold up.
# Assay: qHTS Assay for Identifying the Cell-Membrane Permeable IMPase Inhibitors: Potentiation with Lithium; note: nearly all actives have a fitted effect of over 50% in size
# Conditions: CHO-M1 cells, IP1 TR-FRET (IP-One), carbachol + lithium; series mostly up to 59.4 µM
# Procedure, shortened: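 Steps: plate 2000 CHO-M1 cells per well and culture 16–30 h; add compound and lithium; incubate 30 min, 37C; add d2-IP1 tracer and Eu cryptate anti-IP1 antibody in lysis buffer; read after 10 min at room temperature.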
# Potency is the fitted concentration of half-maximal effect.
row,SMILES,Potency
1,CCC1(C)Cc2ccccc2-c2nc(NCCO)[nH]c(=O)c21 (centres undefined),"inconclusive: 12.6 µM [inhibitor, single point]"
2,O=C(NCCc1ccccc1)c1nc2nc(-c3cccs3)cc(C(F)(F)F)n2n1,"inconclusive: 28.2 µM [inhibitor, single point]"
3,CCOC(=O)Nc1ccc2ncn(C)c(=O)c2c1,"inconclusive: 22.4 µM [inhibitor, single point]"
4,O=C1Nc2ccc(S(=O)(=O)N3CCOCC3)c3cccc1c23,"inconclusive: 7.94 µM [inhibitor, partial curve]"
5,Cc1cc(N=Cc2c(O)ccc3cc(Br)ccc23)no1,"inconclusive: 12.6 µM [inhibitor, partial curve]"
6,COc1cc(OC)cc(C(=O)OCc2cc3ccccc3[nH]c2=O)c1,"inconclusive: 28.2 µM [inhibitor, single point]"
7,O=c1cc(-c2cccc(F)c2)[nH]c2cc(Cl)ccc12,"inconclusive: 44.7 µM [inhibitor, single point]"
8,CCCc1cc(=O)oc2cc(OCC(=O)N3CCc4ccccc43)ccc12,"inconclusive: 12.6 µM [inhibitor, single point]"
9,C=CCn1c(SCC(=O)NC(=O)NCc2ccco2)nc2sc(C)c(C)c2c1=O,"inconclusive: 28.2 µM [inhibitor, single point]"
10,COC(=O)c1ccc(C(=O)OC)c(NC(=O)c2cnc3n(c2=O)CCS3)c1,"inconclusive: 3.55 µM [inhibitor, single point]"
11,CC(=O)Nc1ccc(S(=O)(=O)N(CC(=O)O)Cc2ccccc2)cc1,inactive
12,Cc1oc(-c2ccc(Cl)cc2)nc1CS(=O)CC(=O)NCCN1CCCC1 (centres undefined),"inconclusive: 0.316 µM [inhibitor, full curve, poor fit]"
13,O=Cc1ccc(N2CCCC2)c(F)c1,inactive
14,CCc1cc2cc(C)ccc2nc1SCC(=O)Nc1cc(C)on1,"inconclusive: 28.2 µM [inhibitor, single point]"
15,CN1Cc2cc(C(=O)c3cc(Cl)cc(CSc4ncccn4)c3O)cnc2NC1=O,"inconclusive: 8.91 µM [inhibitor, partial curve]"
16,CC(C)(C)NS(=O)(=O)c1ccc2nc(NC(=O)c3ccc(N4C(=O)CCC4=O)cc3)sc2c1,"inconclusive: 28.2 µM [inhibitor, single point]"
17,Cc1cc(C(F)(F)F)c2c(N)c(C(=O)Nc3cc(C)on3)sc2n1,active: 11.2 µM
18,CC(=O)c1nc(N2C(=O)C3CC=C(C)CC3C2=O)sc1C (centres undefined),"inconclusive: 11.2 µM [inhibitor, single point]"
19,CCN(CC)CCn1c(SCC(=O)Nc2ccc(F)cc2)nc2c(sc3ccccc32)c1=O,"inconclusive: 28.2 µM [inhibitor, single point]"
20,CCc1nnc(NC(=O)c2ccc(Cl)c(S(=O)(=O)N3CCc4ccccc4C3)c2)s1,inactive
21,Cc1cc2cc(CNC(=O)c3ccc(S(=O)(=O)N4CCCC4)cc3)ccc2n1C,inactive
22,CN(C)CCCNc1ncnc2scc(-c3ccccc3)c12,inactive
23,CC(=O)C1=C(O)C(=O)N(CCc2c[nH]c3ccccc23)C1c1ccc(O)cc1 (centres undefined),"inconclusive: 12.6 µM [inhibitor, single point]"

row,SMILES,Potency
1,Cc1ncc(CN2CCCC(CCC(=O)NCc3ccc(F)c(F)c3)C2)s1 (centres undefined),inactive
2,Cc1cccc(NC(=O)CSc2nc(C)c(CC(=O)c3ccc(Br)cc3)c(C)c2C#N)c1C,"inconclusive: 28.2 µM [inhibitor, single point]"
3,CCc1nnc(NC(=O)CSc2nc(-c3ccccc3)cc(-c3ccc(F)cc3)c2C#N)s1,active: 10 µM
4,COC(=O)NNC(=O)COc1ccc2ccccc2c1Br,"inconclusive: 15.8 µM [inhibitor, partial curve]"
5,CC1CN(C(=O)c2cn3ccccc3n2)CC(C)O1 (centres undefined),"inconclusive: 0.355 µM [inhibitor, full curve, poor fit]"
6,Cc1occc1C(=O)N/N=C/C(Br)=C/c1ccccc1,inactive
7,CC(=O)N1CCN(c2ccc(NCc3ccc(C)s3)cc2)CC1,inactive
8,COc1ccc2c(c1)[nH]c(=O)c1sc3ccccc3c12,"inconclusive: 15.8 µM [inhibitor, single point]"
9,Cc1ccccc1-c1nc2cc(N)ccc2o1,"inconclusive: 25.1 µM [inhibitor, partial curve]"
10,CCOC(=O)c1sc(=NC(=O)c2cccc(C)c2)n(C)c1C,"inconclusive: 28.2 µM [inhibitor, single point]"
11,COc1cc(C(=O)NCc2ccc3[nH]c(C)cc3c2)cc(OC)c1OC,inactive
12,COC(=O)c1sc2nc3c(cc2c1N)COC(C)(C)C3,"inconclusive: 11.2 µM [inhibitor, single point]"
13,O=C(/C=C/c1cccc(Cl)c1)NCCc1ccccc1,inactive
14,C=CCn1c2ccccc2c2nnc(SCC(=O)OCN3C(=O)c4ccccc4C3=O)nc21,"inconclusive: 28.2 µM [inhibitor, single point]"
15,N#CCCn1c(=O)c(-c2ccccc2)nc2cnc(N3CCNCC3)nc21,"inconclusive: 10 µM [inhibitor, single point]"
16,O=c1c(-c2ccccc2)nc2cnc(N3CCOCC3)nc2n1C1CC1,"inconclusive: 5.01 µM [inhibitor, partial curve]"
17,COc1cccc(CC(=O)Nc2nc3c(s2)C(=O)CC(C)(C)C3)c1,"inconclusive: 12.6 µM [inhibitor, single point]"
18,CCNc1ncc2nc(-c3ccc(Cl)cc3)c(=O)n(CCC#N)c2n1,"inconclusive: 2 µM [inhibitor, partial curve]"
19,CCOC(=O)/C(C#N)=C/c1cc2ccccc2nc1N1CCCCC1,"inconclusive: 11.2 µM [inhibitor, partial curve]"
20,COc1cccc(Nc2ncc3nc(C)c(=O)n(C)c3n2)c1,"inconclusive: 31.6 µM [inhibitor, single point]"
21,N#CC(C#N)=C(N)/C(C#N)=C/c1ccc(O)cc1,"inconclusive: 8.91 µM [inhibitor, partial curve, poor fit]"
22,Cc1cccc(OCC2=N/C(=C\N(C)C)C(=O)O2)c1,"inconclusive: 28.2 µM [inhibitor, single point]"
23,Cc1ccc2nc(SCC(=O)NCC3CCCO3)c(C#N)cc2c1 (centres undefined),"inconclusive: 22.4 µM [inhibitor, single point]"

row,SMILES,Potency
1,CCc1cc2cc3c(cc2nc1SCC(=O)Nc1nnc(C)s1)OCCO3,active: 12.6 µM
2,O=C(NC1CCCCC1)c1c2c(nc3ccccc13)CCC2,"inconclusive: 3.16 µM [inhibitor, full curve, poor fit]"
3,Cc1nc(SCC(=O)Nc2ccc(C)c(F)c2)c2oc3ccccc3c2n1,"inconclusive: 22.4 µM [inhibitor, single point]"
4,COc1ccc(Cn2c(=O)[nH]c3cc(C(=O)NCCCOC(C)C)ccc3c2=O)cc1,"inconclusive: 11.2 µM [inhibitor, single point]"
5,c1ccc(-c2csc3ncnc(NCCCN4CCOCC4)c23)cc1,inactive
6,O=C(c1ccc(Cl)c(S(=O)(=O)NCc2ccccc2)c1)N1CCN(c2ccccn2)CC1,"inconclusive: 28.2 µM [inhibitor, single point]"
7,Cc1oc(-c2ccc3c(c2)OCCO3)cc1C(=O)NCC(=O)O,inactive
8,O=C(NCCc1ccccc1)C1CCC(CNc2c(N3CCCCC3)c(=O)c2=O)CC1 (centres undefined),inactive
9,COC(=O)c1cc(NC(=O)c2ccc(OC)cc2)c(=O)oc1C,inactive
10,COC(=O)N/N=C(\C)c1ccco1,"inconclusive: 5.01 µM [inhibitor, single point]"
11,O=C(C1=C(O)C(=O)N(c2ncccn2)C1c1ccc(Cl)c(Cl)c1)c1ccco1 (centres undefined),"inconclusive: 31.6 µM [inhibitor, partial curve]"
12,CCOC(=O)CSc1nnc(-c2ccccc2NC(=O)c2ccccc2)o1,active: 11.2 µM
13,CCOC(=O)C1CCN(c2c(C(=O)c3ccccc3)cnc3ccc(Cl)cc23)CC1,"inconclusive: 28.2 µM [inhibitor, single point]"
14,C=CCn1c(SCC(=O)NC2CCCCC2)nc2ccccc2c1=O,"inconclusive: 25.1 µM [inhibitor, single point]"
15,O=C(CCCn1cc([N+](=O)[O-])cn1)NCc1ccccc1,"inconclusive: 3.16 µM [inhibitor, full curve, poor fit]"
16,COc1cc(-c2nc3ccccc3c(=O)n2N)cc(OC)c1OC,"inconclusive: 31.6 µM [inhibitor, single point]"
17,Cc1cccc(C)c1NC(=O)Cn1nnc(-c2ccc(N3CCOCC3)cc2)n1,"inconclusive: 14.1 µM [inhibitor, single point]"
18,Cc1cc(=O)oc2cc(OC(=O)c3ccco3)ccc12,"inconclusive: 15.8 µM [inhibitor, partial curve]"
19,O=C(Cn1nnc(-c2ccc3c(c2)OCO3)n1)NCc1ccccc1,"inconclusive: 10 µM [inhibitor, single point]"
20,Cc1cc(C)n(-c2ccc(C(=O)OCC(=O)NC(c3ccccc3)c3ccccc3)cc2)n1,"inconclusive: 28.2 µM [inhibitor, single point]"
21,Cc1cccc(OCc2nnc(SCc3cc(=O)n4cc(Br)ccc4n3)o2)c1,"inconclusive: 11.2 µM [inhibitor, single point]"
22,Cn1c(=S)[nH]c2c(c1=O)C(C)(C)Cc1ccccc1-2,active: 1.41 µM
23,CC(=O)c1ccc(NC(=O)c2ccc(CSc3ccccc3)o2)cc1,"inconclusive: 22.4 µM [inhibitor, single point]"
